Measurements taken from the supplement of paper PMC11316812.
± gives the standard deviation of the averaged measurements.

What was measured:
[1] = test system: hTERT-HMEC; assay: percentage of EdU-negative (G0-arrested) nuclei per well, 72 h; higher = more G0 arrest; conditions: reference: sequence is the full UniProt precursor, the tested protein was the secreted form or ectodomain
[2] = test system: MCF7; assay: as above; conditions: reference: sequence is the full UniProt precursor, the tested protein was the secreted form or ectodomain
[3] = protein concentration 0.0225 µM
[4] = protein concentration 0.0155 µM
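Further: secreted proteins added to cultured cells, EdU pulse at the end, nuclei found by Hoechst imaging, EdU status from nuclear versus surrounding ring intensity ratio, PBS as neutral control.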

Sequence | percentage of EdU-negative [1, 3] [%] | percentage of EdU-negative ([1]; protein concentration 0.225 µM) [%] | percentage of EdU-negative [2, 3] [%] | percentage of EdU-negative ([2]; protein concentration 0.225 µM) [%] | percentage of EdU-negative [1, 4] [%] | percentage of EdU-negative ([1]; protein concentration 0.155 µM) [%] | percentage of EdU-negative [2, 4] [%] | percentage of EdU-negative ([2]; protein concentration 0.155 µM) [%]
MSSGGGSRGLLAWLLLLQPWPGQNWAGMAAPRLPSPLLSEEGGENPEASPAPGPEAGPPLNLFTSFPGDSLLCGRTPLRIVGGVDAEEGRWPWQVSVRTKGRHICGGTLVTATWVLTAGHCISSRFHYSVKMGDRSVYNENTSVVVSVQRAFVHPKFSTVTTIRNDLALLQLQHPVNFTSNIQPICIPQENFQVEGRTRCWVTGWGKTPEREKLASEILQDVDQYIMCYEECNKIIQKALSSTKDVIIKGMVCGYKEQGKDSCQGDSGGRLACEYNDTWVQVGIVSWGIGCGR [Q7Z5A4] | 5.81 ± 0.35 | 7.13 ± 0.12 | 22.4 ± 3.4 | 29.7 ± 0.68 |  |  |  | 
MTKNEKKSLNQSLAEWKLFIYNPTTGEFLGRTAKSWGLILLFYLVFYGFLAALFSFTMWVMLQTLNDEVPKYRDQIPSPGLMVFPKPVTALEYTFSRSDPTSYAGYIEDLKKFLKPYTLEEQKNLTVCPDGALFEQKGPVYVACQFPISLLQACSGMNDPDFGYSQGNPCILVKMNRIIGLKPEGVPRIDCVSKNEDIPNVAVYPHNGMIDLKYFPYYGKKLHVGYLQPLVAVQVSFAPNNTGKEVTVECKIDGSANLKSQDDRDKFLGRVMFKITARA |  |  |  |  | 4.69 ± 1.3 | 6.13 ± 0.067 | 26.1 ± 0.35 | 29 ± 2.7
MTWRHHVRLLFTVSLALQIINLGNSYQREKHNGGREEVTKVATQKHRQSPLNWTSSHFGEVTGSAEGWGPEEPLPYSRAFGEGASARPRCCRNGGTCVLGSFCVCPAHFTGRYCEHDQRRSECGALEHGAWTLRACHLCRCIFGALHCLPLQTPDRCDPKDFLASHAHGPSAGGAPSLLLLLPCALLHRLLRPDAPAHPRSLVPSVLQRERRPCGRPGLGHRL [P0CG37] | 3.95 ± 0.99 | 5.06 ± 0.65 | 26.8 ± 0.65 | 31 ± 0.7 |  |  |  | 
MVFQTRYPSWIILCYIWLLRFAHTGEAQAAKEVLLLDSKAQQTELEWISSPPNGWEEISGLDENYTPIRTYQVCQVMEPNQNNWLRTNWISKGNAQRIFVELKFTLRDCNSLPGVLGTCKETFNLYYYETDYDTGRNIRENLYVKIDTIAADESFTQGDLGERKMKLNTEVREIGPLSKKGFYLAFQDVGACIALVSVKVYYKKCWSIIENLAIFPDTVTGSEFSSLVEVRGTCVSSAEEEAENAPRMHCSAEGEWLVPIGKCICKAGYQQKGDTCEPCGRGFYKSSSQDLQCSRCPTHSFSDKEGSSRCECEDGYYRAPSDPPYVACTRPPSAPQNLIFNINQTTVSLEWSPPADNGGRNDVTYRILCKRCSWEQGECVPCGSNIGYMPQQTGLEDNYVTVMDLLAHANYTFEVEAVNGVSDLSRSQRLFAAVSITTGQAAPSQVSGVMKERVLQRSVELSWQEPEHPNGVITEYEIKYYEKDQRERTYSTVKTKSTSASINNLKPGTVYVFQIRAFTAAGYGNYSPRLDVATLEEATGKMFEATAVSSEQNPVIIIAVVAVAGTIILVFMVFGFIIGRRHCGYSKADQEGDEELYFHFKFPGTKTYIDPETYEDPNRAVHQFAKELDASCIKIERVIGAGEFGEVCSGRLKLPGKRDVAVAIKTLKVGYTEKQRRDFLCEASIMGQFDHPNVVHLEGVVTRGKPVMIVIEFMENGALDAFLRKHDGQFTVIQLVGMLRGIAAGMRYLADMGYVHRDLAARNILVNSNLVCKVSDFGLSRVIEDDPEAVYTTTGGKIPVRWTAPEAIQYRKFTSASDVWSYGIVMWEVMSYGERPYWDMSNQDVIKAIEEGYRLPAPMDCPAGLHQLMLDCWQKERAERPKFEQIVGILDKMIRNPNSLKTPLGTCSRPISPLLDQNTPDFTTFCSVGEWLQAIKMERYKDNFTAAGYNSLESVARMTIEDVMSLGITLVGHQKKIMSSIQTMRAQMLHLHGTGIQV | 5.15 ± 0.097 | 5.51 ± 0.13 | 28.9 ± 0.44 | 26.9 ± 1.1 |  |  |  | 
MVRSVAWAGFMVLLMIPWGSAAKLVCYFTNWAQYRQGEARFLPKDLDPSLCTHLIYAFAGMTNHQLSTTEWNDETLYQEFNGLKKMNPKLKTLLAIGGWNFGTQKFTDMVATANNRQTFVNSAIRFLRKYSFDGLDLDWEYPGSQGSPAVDKERFTTLVQDLANAFQQEAQTSGKERLLLSAAVPAGQTYVDAGYEVDKIAQNLDFVNLMAYDFHGSWEKVTGHNSPLYKRQEESGAAASLNVDAAVQQWLQKGTPASKLILGMPTYGRSFTLASSSDTRVGAPATGSGTPGPFTKEGGMLAYYEVCSWKGATKQRIQDQKVPYIFRDNQWVGFDDVESFKTKVSYLKQKGLGGAMVWALDLDDFAGFSCNQGRYPLIQTLRQELSLPYLPSGTPELEVPKPGQPSEPEHGPSPGQDTFCQGKADGLYPNPRERSSFYSCAAGRLFQQSCPTGLVFSNSCKCCTWN | 5.45 ± 0.53 | 5.69 ± 1 | 25.7 ± 0.76 | 25.5 ± 2.2 |  |  |  | 
